# Results reported in publication PMC4336329 (PLoS ONE, 2015).
# The whole screen tested about 310,000 compounds, of which about 2,200 (0.71%) showed an effect of 50% or more. The effect is printed as a negative number. Some of the results follow.
# Target: human ether-à-go-go-related gene (hERG) potassium channel (human, UniProt Q12809)
# Assay: primary screen, population patch clamp on CHO cells stably expressing hERG
# Procedure: Briefly, Chinese hamster ovary (CHO) cells stably expressing the hERG channel were dislodged from tissue culture flasks and dispensed into PPC plates. […] During the recording, background leak currents were estimated by a 100 ms step to -80 mV from an initial holding potential of -70 mV and subtracted from the subsequent current measurement. The campaign was conducted in two phases using slight differences in recording protocol. In the first phase, the initial voltage pulse used a 100 ms step to -30 mV from a holding potential of -70 mV, a 2 s conditioning step to +25 mV, and a 2 s test step to -30 mV. During the second phase of the screen, the potential during the conditioning step was raised to +45 mV. In both phases of the campaign, a secondary voltage pulse was applied using the same parameters as the second phase initial pulse. The initial and secondary pulses were applied in the absence of compound, and upon application of 1 μM and 10 μM test concentrations. Small molecule effects on hERG current density were quantified by […].
# human ether-à-go-go-related gene (hERG) potassium channel, sequence (Q12809 whole entry, looked up): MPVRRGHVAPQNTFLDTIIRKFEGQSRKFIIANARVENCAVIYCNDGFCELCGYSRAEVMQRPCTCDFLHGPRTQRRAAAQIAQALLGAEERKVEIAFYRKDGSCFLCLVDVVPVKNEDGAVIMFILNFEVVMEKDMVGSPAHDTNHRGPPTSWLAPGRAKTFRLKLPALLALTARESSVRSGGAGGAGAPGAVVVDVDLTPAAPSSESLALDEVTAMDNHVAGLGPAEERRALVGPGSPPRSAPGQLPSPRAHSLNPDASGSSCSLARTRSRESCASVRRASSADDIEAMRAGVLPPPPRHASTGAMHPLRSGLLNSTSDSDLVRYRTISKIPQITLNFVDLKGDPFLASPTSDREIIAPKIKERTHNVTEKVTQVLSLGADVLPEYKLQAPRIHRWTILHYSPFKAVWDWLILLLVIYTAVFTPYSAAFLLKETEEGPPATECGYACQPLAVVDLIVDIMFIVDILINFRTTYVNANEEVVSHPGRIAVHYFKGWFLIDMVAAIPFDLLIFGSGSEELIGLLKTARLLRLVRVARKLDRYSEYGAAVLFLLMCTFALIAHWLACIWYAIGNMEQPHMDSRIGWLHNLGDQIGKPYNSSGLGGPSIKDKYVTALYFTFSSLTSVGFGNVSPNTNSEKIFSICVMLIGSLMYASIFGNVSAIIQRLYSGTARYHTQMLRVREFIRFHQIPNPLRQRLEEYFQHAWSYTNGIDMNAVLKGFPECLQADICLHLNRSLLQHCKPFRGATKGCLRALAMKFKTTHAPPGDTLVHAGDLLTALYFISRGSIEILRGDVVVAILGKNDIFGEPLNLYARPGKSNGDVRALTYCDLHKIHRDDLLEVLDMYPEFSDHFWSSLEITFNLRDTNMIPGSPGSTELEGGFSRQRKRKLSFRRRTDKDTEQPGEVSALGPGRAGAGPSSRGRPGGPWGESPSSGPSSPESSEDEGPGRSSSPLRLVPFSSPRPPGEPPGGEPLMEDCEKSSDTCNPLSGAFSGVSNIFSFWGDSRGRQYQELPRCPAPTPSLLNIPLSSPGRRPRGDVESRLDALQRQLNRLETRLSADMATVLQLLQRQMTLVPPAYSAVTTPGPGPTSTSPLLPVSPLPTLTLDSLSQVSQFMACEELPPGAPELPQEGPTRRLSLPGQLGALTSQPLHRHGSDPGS
row,SMILES,"hERG current change (%, negative = inhibition) at 1uM [%]"
1,CCC(=O)N1CCc2cc(S(=O)(=O)CCC(=O)N3CCN(c4ccc(Cl)cc4)CC3)ccc21,18.1
2,CC(=O)Nc1ccc(NC(=O)CSc2nnc(-c3ccco3)n2Cc2ccco2)cc1,21.5
3,COc1ccccc1C1=NOC(COC(=O)c2ccc(Br)cc2)C1 (stereo not drawn),15.2
4,O=C(CCCCn1c(=O)c2ccccc2n(Cc2ccc(Cl)cc2)c1=O)NCc1ccco1,3.59
5,Cc1cccc(OCC(=O)NC(Cc2ccccc2)C(=O)O)c1 (stereo not drawn),6.26
6,Cc1cccc(SCC(=O)Nc2ccccc2[N+](=O)[O-])c1,3.75
7,CC1CCCN(C(=S)NCc2ccccc2)C1 (stereo not drawn),-2.9
8,CN(C)c1ccc(/C=N/NC(=O)c2sccc2-n2cccc2)cc1,4.65
9,O=C(Cn1cnc2c(nnn2Cc2ccc(Cl)cc2)c1=O)NC1CCCC1,10.9
10,COc1cc2nc(Nc3ccc(F)cc3)nc(N)c2cc1OC.Cl,11.8
11,COc1cc(C(=O)Nc2ccc(OCC(=O)N3CCOCC3)cc2C)cc(OC)c1OC,9.76
12,Cc1c2ccccc2cc[n+]1CCCS(=O)(=O)[O-],18.5
13,O=C(NC(=S)NNS(=O)(=O)c1ccccc1)c1ccc([N+](=O)[O-])cc1,5.2
14,C/C(=N\NC(=O)CNC(=O)c1ccccc1Br)c1ccco1,5.77
15,CC(=O)Nc1ccc(S(=O)(=O)N[C@@H](C)C(=O)OCc2cc([N+](=O)[O-])cc3c2OCOC3)cc1,6.61
16,Cc1ccc2oc(=O)c(/C=C(\O)c3ccco3)nc2c1,13.2
17,CCOC(=O)NCC(C#CCN(CC)CC)N(CC)CC (stereo not drawn),7.24
18,Cl.O=C(CCN1CCOCC1)Nc1ccc(Cl)cc1,8.71
19,COc1cccc(C(=O)/C=C/c2ccc(N3CCCCC3)c([N+](=O)[O-])c2)c1,7.48
20,COc1ccc(Nc2ccnc3ccccc23)cc1.Cl,-6.28
21,Cc1ccc(OCC(=O)NN2C(=O)c3ccccc3C2=O)c(C)c1,9.92
22,COc1ccc(OCC(=O)Nc2cc(NC(=O)COc3ccc(OC)cc3)cc(C(=O)O)c2)cc1,10.2
23,CC(NC(=O)[C@H](C)NC(=O)C1CC(=O)N(c2ccc3c(c2)OCO3)C1)c1ccccc1 (stereo partly drawn),5.86
24,CCOc1ccccc1N(CC(=O)Nc1ccc(S(=O)(=O)N2CCOCC2)cc1)S(=O)(=O)c1ccccc1,9.41
25,CN1CCN(C(=O)c2cccn(Cc3ccc(C(F)(F)F)cc3)c2=O)CC1,19.1
26,COCCN1CCN(c2c(C)c(C)nc3cc(-c4cccc(OC)c4)nn23)CC1,10.6
27,C=CCN(C(=O)CNC(=O)c1ccco1)C(C(=O)NC1CCCCC1)c1cccnc1 (stereo not drawn),3.63

row,SMILES,"hERG current change (%, negative = inhibition) at 1uM [%]"
1,COc1ccc(S(=O)(=O)N2CCc3ccccc32)cc1C(=O)OCC(=O)c1c(N)n(C)c(=O)n(C)c1=O,8.21
2,Cc1ccc(N2CCN(CC(O)COc3cccc4ccccc34)CC2)cc1 (stereo not drawn),-0.483
3,COc1ccc(NC(=O)C2CC(c3cccc(Br)c3)=NO2)cc1OC (stereo not drawn),22
4,C=CCNC(=O)[C@H]1N2C(=O)c3ccccc3C2SC1(C)C (stereo partly drawn),16.1
5,COc1ccc(NC(=O)c2cccc(NC(=O)C3C4CC5OC(=O)C3C5C4)c2)c(OC)c1 (stereo not drawn),10.6
6,O=C(Cc1ccc(Cl)cc1)Nc1ccc(NC(=O)c2ccccc2)cc1,28.2
7,COc1ccc(C(=O)C2CCCN(Cc3cnc(N4CCOCC4)s3)C2)c(OC)c1 (stereo not drawn),-4.05
8,CC(C)NCC(O)COCCOc1ccc(Cl)cc1.Cl (stereo not drawn),8.08
9,COc1ccc2cc3cc(C(=O)NCCCN4CCc5ccccc5C4)sc3nc2c1,13.3
10,CS(=O)(=O)NCCOc1ccc(S(=O)(=O)N2CCCc3ccccc32)cc1,2.34
11,Cc1ccc(NC(=O)CC(O)(C(F)(F)F)C(F)(F)F)cc1,19.8
12,NC(=O)[C@@H]1CC2(CC(c3cccc(NC(=O)[C@H]4CCC(=O)N4)c3)=NO2)CN1C(=O)COc1ccc(Cl)cc1 (stereo partly drawn),17.4
13,O=C(Cn1nnc(-c2ccccc2F)n1)N1CCCCC1,24.2
14,Cc1ccc(C(=O)CSc2nc(N)cc(=O)[nH]2)cc1C,9.67
15,O=C(CSc1ncnc2nc[nH]c12)c1ccc(Cl)cc1,13
16,COc1ccc(OCC(=O)Nc2ccccc2N2CCN(C)CC2)cc1,-3.86
17,CCCNC(=O)Cn1cnc2sc(C(=O)N3CCN(Cc4ccc5c(c4)OCO5)CC3)c(C)c2c1=O,13.7
18,COc1ccc(OCC(=O)NNC(=O)c2cccc(S(=O)(=O)N(C)C)c2)cc1,12.5
19,CCCC(=O)Nc1nc(C)c(-c2csc(Nc3ccccc3C)n2)s1,7.58
20,CCCn1c(SCC(=O)c2ccc3c(c2)OCCO3)nnc1C(C)C,-8.41
21,CN(Cc1ccccc1)S(=O)(=O)c1ccc(NC(=S)NC(=O)C2CCCC2)cc1,21.1
22,NC(=O)c1cccc(-c2cc(Nc3ccc(OC(F)(F)F)cc3)ncn2)c1,8.52
23,COc1ccc(C(C)=O)cc1COc1cccnc1[N+](=O)[O-],8.63
24,CC(=O)Nc1ccc(S(=O)(=O)N(CCc2ccccc2)CC(=O)N/N=C/c2ccc(C(=O)O)cc2)cc1,11.8
25,COc1ccc(/C=N/Nc2nonc2N)cc1OC,6.54
26,S=c1nc(-c2ccccc2Cl)n(Cc2cccnc2)c2c1CCCC2,12
27,Fc1ccc(N2CCN(c3cnc4ccccc4n3)CC2)cc1,7.89
